The list shows a part of the results. Sequences were assembled here from the parent chain. Inactive controls read about 0.05.
B1: TEV protease; numbered along this chain (parent)
chain: MGESLFKGPRDYNPISSSICHLTNESDGHTTSLYGIGFGPFIITNKHLFRRNNGTLVVQSLHGVFKVKDTTTLQQHLVDGRDMIIIRMPKDFPPFPQKLKFREPQREERICLVTTNFQTKSMSSMVSDTSCTFPSGDGIFWKHWIQTKDGQCGSPLVSTRDGFIVGIHSASNFTNTNNYFTSVPKNFMELLTNQEAQQWVSGWRLNADSVLWGGHKVFMVKPEEPFQPVKEATQL

Variants of: B1
Assay: raw area under fraction-flipped curve 0-4 h after induction (AUC4h, not background-subtracted), DNA-recorder readout of cleavage of the substrate (dimensionless); higher = more cleavage of the substrate by the protease variant
Conditions: temperature: 34 °C; time window: 0-4 h after rhamnose induction
Description: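 In vivo DNA recorder in E. coli TOP10(DE3) ΔrhaA at 34 °C. Each TEVp single-site mutant (parent TEVp 0) is paired with a single-site variant of the 7-mer TEVs (canonical ENLYFQ|S). The substrate sits between flexible linkers in a Bxb1-sfGFP-TEVs-SsrA fusion, so cleavage stabilises Bxb1 and speeds flipping of a recombination array, read by NGS. The value is the raw area under the fraction-flipped curve over 0-4 h after rhamnose induction (AUC4h), with ≥20 reads per time point. It is not background-subtracted; inactive controls average about 0.047.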
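Also: Bxb1 expression induced with 0.2% (w/v) L-rhamnose at OD600 near 0.5, cultures sampled hourly, flipped fraction per protease–substrate barcode pair counted by paired-end Illumina sequencing.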

Row | Variant | area with substrate ENLYFQD | area with substrate ENLYFQL | area with substrate ENLYFQS | area with substrate ENLYFQT | area with substrate ENLYFQV | area with substrate ENLYFQY | area with substrate ENLYFQE | area with substrate ENLYFQN | area with substrate ENLYFQP | area with substrate ENLYFQW
1 | MGESLFKGPRDYNPISSSICHLTNESDGHTTSLYGIGFGPFIITNKHLFRRNNGTLVVQSLHGVFKVKDTTTLQQHLVDGRDMIIIRMPKDFPPFPQKLKFREPQREERICLVTTNFQTKSMSSMVSDTSCTFPSGDGIFWKHWIQTKDGQCGSPLVSTRDGFIVGIHSASNFTNTNNYFTSVPKNFMELLTNQEAQQWDSGWRLNADSVLWGGHKVFMVKPEEPFQPVKEATQL [V200D] | 0.0523 | 0.0505 | 0.0716 | 0.0839 | 0.063 | 0.058 | – | – | – | –
2 | MGESLFKGPRDYNPISSSICHLTNESDGHTTSLYGIGFGPFIITNKHLFRRNNGTLVVQSLHGVFKVKDTTTLQQHLVDGRDMIIIRMPKDFPPFPQKLKFREPQREERICLVTTNFQTKSMSSMVSDTSCTFPSGDGIFWKHWIQTKDGQCGSPLVSTRDGFIVGIHSASNFTNTNNYFTSVPKNFMELLTNQEAQQWVSGWRLNADSVLWCGHKVFMVKPEEPFQPVKEATQL [G213C] | – | – | 0.0668 | 0.0499 | 0.0669 | – | 0.0741 | 0.0422 | 0.0663 | 0.0715
3 | MGESLFKGPRDYNPISSSICHLTNESDGHTTSLYGIGFGPFIITNKHLFRRNNGTLVVQSLHGVFKVKDTTTLQQHLVDGRDMIIIRMPKDFPPFPQKLKFREPQREERICLVTTNFQTKSMSSMVSDTSCTFPSGDGIFWKHWIQTKDGQCGSPLVSTRDGFIVGIHSASPFTNTNNYFTSVPKNFMELLTNQEAQQWVSGWRLNADSVLWGGHKVFMVKPEEPFQPVKEATQL [N172P] | 0.0639 | – | 0.0581 | 0.0074 | – | 0.0636 | – | – | – | –
4 | MGESLFKGPRDYNPISSSICHLTNESDGHTTSLYGIGFGPFIITNKHLFRRNNGTLVVQSLHGVFKVKDTTTLQQHLVDGRDMIIIRMPKDFPPFPQKLKFREPQREERICLVTTNFQTKSMSSWVSDTSCTFPSGDGIFWKHWIQTKDGQCGSPLVSTRDGFIVGIHSASNFTNTNNYFTSVPKNFMELLTNQEAQQWVSGWRLNADSVLWGGHKVFMVKPEEPFQPVKEATQL [M125W] | 0.0752 | 0.0555 | 0.0929 | – | – | – | – | 0.0779 | 0.0582 | 0.0653
5 | MGESLFKGPRDYNPISSSICHLTNESDGHTTSLYGIGFGPFIITNKHLFRRNNGTLVVQSLHGVFKVKDTTTLQQHLVDGRDMIIIRMPKDFPPFPQKLKFREPQREERICLVTTNFQTKSMSSMVSDTSCTFPSGDGIFWKHWIQTKDGQCGSPLVSTRDGFIVGIHSASNFTNTNNYSTSVPKNFMELLTNQEAQQWVSGWRLNADSVLWGGHKVFMVKPEEPFQPVKEATQL [F180S] | 0.0572 | – | 0.066 | – | – | 0.0698 | – | 0.0613 | – | 0.0772
6 | MGESLFKGPRDYNPISSSICHLTNESDGHTTSLYGIGFGPFIITNKHLFRRNNGTLVVQSLHGVFKVKDTTTLQQHLVDGRDMIIIQMPKDFPPFPQKLKFREPQREERICLVTTNFQTKSMSSMVSDTSCTFPSGDGIFWKHWIQTKDGQCGSPLVSTRDGFIVGIHSASNFTNTNNYFTSVPKNFMELLTNQEAQQWVSGWRLNADSVLWGGHKVFMVKPEEPFQPVKEATQL [R87Q] | 0.0912 | – | 0.131 | – | – | – | – | – | 0.064 | –
7 | MGESLFKGPRDYNPISSSICHLTNESDGHTTSLYGIGFGPFIITNKHLFRRNNGTLVVQSLHGVFKVKDTTTLQMHLVDGRDMIIIRMPKDFPPFPQKLKFREPQREERICLVTTNFQTKSMSSMVSDTSCTFPSGDGIFWKHWIQTKDGQCGSPLVSTRDGFIVGIHSASNFTNTNNYFTSVPKNFMELLTNQEAQQWVSGWRLNADSVLWGGHKVFMVKPEEPFQPVKEATQL [Q75M] | 0.0737 | – | 0.112 | 0.0564 | – | – | – | – | 0.0583 | 0.0561
8 | MGESLFKGPRDYNPISSSICHLTNESDGHTTSLYGIGFGPFIITNKHLFRRNNGTLVVQSLHGVFKVKDTTTLQQHLVDGRDMIIIRMPKDFPPFPQKLKFREPQREERICLVTTNFQTKSMSSMVSDTSCTFPSGDGIFWKHWGQTKDGQCGSPLVSTRDGFIVGIHSASNFTNTNNYFTSVPKNFMELLTNQEAQQWVSGWRLNADSVLWGGHKVFMVKPEEPFQPVKEATQL [I145G] | – | 0.0521 | 0.0973 | 0.0699 | – | – | 0.0593 | – | – | –
9 | MGESLFKGPRDYNPISSSICHLTNESDGHTTSLYGIGFGPFIITNKHLFRRNNGTLVVQSLHGVFKVKDTTTLQQHLVDGRDMIIIRMPKDFPPFPQKLKFREPQREERICLVTTNFQTKSMSSMVSDTSCTFPSGDGIFWKHWIQTLDGQCGSPLVSTRDGFIVGIHSASNFTNTNNYFTSVPKNFMELLTNQEAQQWVSGWRLNADSVLWGGHKVFMVKPEEPFQPVKEATQL [K148L] | 0.0752 | – | 0.102 | 0.0662 | 0.0614 | – | – | 0.0868 | 0.0579 | –
10 | MGESLFKGPRDYNPISSSICHLTNESDGHTTSLYGIGFGPFIITNKHLFRRNNGTLVVQSLHGVFKVKDTTTLQQHLVDGRDMIIIRMPKDLPPFPQKLKFREPQREERICLVTTNFQTKSMSSMVSDTSCTFPSGDGIFWKHWIQTKDGQCGSPLVSTRDGFIVGIHSASNFTNTNNYFTSVPKNFMELLTNQEAQQWVSGWRLNADSVLWGGHKVFMVKPEEPFQPVKEATQL [F92L] | 0.0694 | – | 0.109 | 0.0689 | – | – | – | 0.0844 | 0.0564 | –
11 | MGESLFKGPRDYNPISSSICHLTNESDGHTTSLYGIGFGPFIITNKHLFRRNNGTLVVQSLHGVFKVKDTTTLQQHLVDGRDMIIIRMPKDNPPFPQKLKFREPQREERICLVTTNFQTKSMSSMVSDTSCTFPSGDGIFWKHWIQTKDGQCGSPLVSTRDGFIVGIHSASNFTNTNNYFTSVPKNFMELLTNQEAQQWVSGWRLNADSVLWGGHKVFMVKPEEPFQPVKEATQL [F92N] | – | 0.0617 | 0.0847 | 0.0512 | 0.0444 | 0.0688 | 0.0522 | – | – | 0.0337

Same assay, conditions: temperature: 34 °C; time window: 0-4 h after rhamnose induction

Row | Variant | area with substrate ENLYFQG | area with substrate ENLYFQH | area with substrate ENLYFQI | area with substrate ENLYFQM | area with substrate ENLYFQR | area with substrate ENLYFQK | area with substrate ENLYFQF | area with substrate ENLYFQQ
12 | MGESLFKGPRDYNPISSSICHLTNESDGHTTSLYGIGFGPFIITNKHLFRRNNGTLVVQSLHGVFKVKDTTTLQQHLVDGRDMIIIRMPKDFPPFPQKLKFREPQREERICLVTTNFQTKSMSSMVSDTSCTFPSGDGIFWKHWIQTKDGQCGSPLVSTRDGFIVGIHSASPFTNTNNYFTSVPKNFMELLTNQEAQQWVSGWRLNADSVLWGGHKVFMVKPEEPFQPVKEATQL [N172P] | 0.0683 | 0.072 | 0.0524 | – | – | – | – | –
13 | MGESLFKGPRDYNPISSSICHLTNESDGHTTSLYGIGFGPFIITNKHLFRRNNGTLVVQSLHGVFKVKDTTTLQQHLVDGRDMIIIRMPKDFPPFPQKLKFREPQREERICLVTTNFQTKSMSSWVSDTSCTFPSGDGIFWKHWIQTKDGQCGSPLVSTRDGFIVGIHSASNFTNTNNYFTSVPKNFMELLTNQEAQQWVSGWRLNADSVLWGGHKVFMVKPEEPFQPVKEATQL [M125W] | – | – | 0.0532 | 0.0881 | 0.0524 | – | – | –
14 | MGESLFKGPRDYNPISSSICHLTNESDGHTTSLYGIGFGPFIITNKHLFRRNNGTLVVQSLHGVFKVKDTTTLQQHLVDGRDMIIIRMPKDFPPFPQKLKFREPQREERICLVTTNFQTKSMSSMVSDTSCTFPSGDGIFWKHWIQTKDGQCGSPLVSTRDGFIVGIHSASNFTNTNNYSTSVPKNFMELLTNQEAQQWVSGWRLNADSVLWGGHKVFMVKPEEPFQPVKEATQL [F180S] | 0.0645 | – | – | – | – | – | – | –
15 | MGESLFKGPRDYNPISSSICHLTNESDGHTTSLYGIGFGPFIITNKHLFRRNNGTLVVQSLHGVFKVKDTTTLQQHLVDGRDMIIIQMPKDFPPFPQKLKFREPQREERICLVTTNFQTKSMSSMVSDTSCTFPSGDGIFWKHWIQTKDGQCGSPLVSTRDGFIVGIHSASNFTNTNNYFTSVPKNFMELLTNQEAQQWVSGWRLNADSVLWGGHKVFMVKPEEPFQPVKEATQL [R87Q] | – | – | – | – | – | 0.067 | – | –
16 | MGESLFKGPRDYNPISSSICHLTNESDGHTTSLYGIGFGPFIITNKHLFRRNNGTLVVQSLHGVFKVKDTTTLQMHLVDGRDMIIIRMPKDFPPFPQKLKFREPQREERICLVTTNFQTKSMSSMVSDTSCTFPSGDGIFWKHWIQTKDGQCGSPLVSTRDGFIVGIHSASNFTNTNNYFTSVPKNFMELLTNQEAQQWVSGWRLNADSVLWGGHKVFMVKPEEPFQPVKEATQL [Q75M] | – | 0.1 | – | – | 0.0543 | 0.0668 | 0.0605 | –
17 | MGESLFKGPRDYNPISSSICHLTNESDGHTTSLYGIGFGPFIITNKHLFRRNNGTLVVQSLHGVFKVKDTTTLQQHLVDGRDMIIIRMPKDFPPFPQKLKFREPQREERICLVTTNFQTKSMSSMVSDTSCTFPSGDGIFWKHWGQTKDGQCGSPLVSTRDGFIVGIHSASNFTNTNNYFTSVPKNFMELLTNQEAQQWVSGWRLNADSVLWGGHKVFMVKPEEPFQPVKEATQL [I145G] | 0.0702 | – | 0.0614 | – | 0.0566 | – | – | –
18 | MGESLFKGPRDYNPISSSICHLTNESDGHTTSLYGIGFGPFIITNKHLFRRNNGTLVVQSLHGVFKVKDTTTLQQHLVDGRDMIIIRMPKDFPPFPQKLKFREPQREERICLVTTNFQTKSMSSMVSDTSCTFPSGDGIFWKHWIQTLDGQCGSPLVSTRDGFIVGIHSASNFTNTNNYFTSVPKNFMELLTNQEAQQWVSGWRLNADSVLWGGHKVFMVKPEEPFQPVKEATQL [K148L] | – | 0.0725 | 0.0406 | 0.0745 | – | 0.0719 | – | 0.0644
19 | MGESLFKGPRDYNPISSSICHLTNESDGHTTSLYGIGFGPFIITNKHLFRRNNGTLVVQSLHGVFKVKDTTTLQQHLVDGRDMIIIRMPKDLPPFPQKLKFREPQREERICLVTTNFQTKSMSSMVSDTSCTFPSGDGIFWKHWIQTKDGQCGSPLVSTRDGFIVGIHSASNFTNTNNYFTSVPKNFMELLTNQEAQQWVSGWRLNADSVLWGGHKVFMVKPEEPFQPVKEATQL [F92L] | 0.134 | – | 0.0478 | 0.131 | – | 0.0984 | – | –
20 | MGESLFKGPRDYNPISSSICHLTNESDGHTTSLYGIGFGPFIITNKHLFRRNNGTLVVQSLHGVFKVKDTTTLQQHLVDGRDMIIIRMPKDNPPFPQKLKFREPQREERICLVTTNFQTKSMSSMVSDTSCTFPSGDGIFWKHWIQTKDGQCGSPLVSTRDGFIVGIHSASNFTNTNNYFTSVPKNFMELLTNQEAQQWVSGWRLNADSVLWGGHKVFMVKPEEPFQPVKEATQL [F92N] | – | – | 0.0691 | 0.0732 | 0.0558 | 0.0601 | – | –

From the supplement of paper PMC12217912
